This is an account of results in patent US20230135471A1 (INTEGRATED DNA TECHNOLOGIES, published 2023).

Changes are numbered by the printed parent chain. In names and notes the source's numbering stands.

The labels stand for the following.
B1: L2V (CM495) (designed binder)
Ubv: MHHHHHHGGSGYVIFVRMLTGKMIELEVEPSDTIENIKAKIQDHEGIPLDQQRLTFQGKLLEDGRTLSDYNLTISPEKMAVLRMQ
B2: L2E (CM483) (designed binder)
Ubv: B1 Ubv with V13E
B3: CM487, His-tagged (designed binder)
chain: B1 Ubv with V13I
B4: L2A (CM478) (designed binder)
Ubv: B1 Ubv with V13A
B5: L2F (CM490) (designed binder)
Ubv: B1 Ubv with V13F
B6: L2W (CM493) (designed binder)
Ubv: B1 Ubv with V13W
B7: L2T (CM492) (designed binder)
Ubv: B1 Ubv with V13T
B8: L2D (CM481) (designed binder)
Ubv: B1 Ubv with V13D
B9: L2G (CM485) (designed binder)
Ubv: B1 Ubv with V13G
B10: L2N (CM480) (designed binder)
Ubv: B1 Ubv with V13N
B11: L2Y (CM494) (designed binder)
Ubv: B1 Ubv with V13Y
B12: L2S (CM491) (designed binder)
Ubv: B1 Ubv with V13S
B13: L2K (CM488) (designed binder)
Ubv: B1 Ubv with V13K
B14: L2H (CM486) (designed binder)
Ubv: B1 Ubv with V13H
B15: L2P (CM496) (designed binder)
Ubv: B1 Ubv with V13P
B16: CM489, His-tagged (designed binder)
chain: B1 Ubv with V13L
B17: L2R (CM479) (designed binder)
Ubv: B1 Ubv with V13R
B18: L69G (CM430) (designed binder)
Ubv: B1 Ubv with V13M, T73P, A80G
B19: L69G+V70C (CM437) (designed binder)
Ubv: B1 Ubv with V13M, T73P, A80G, V81C
B20: CM429 (CM476 + L69A), His-tagged (designed binder)
chain: B1 Ubv with V13M, T73P
B21: L69M+V70C (CM463) (designed binder)
Ubv: B1 Ubv with V13M, T73P, A80M, V81C
B22: L69M+V70M (CM439) (designed binder)
Ubv: B1 Ubv with V13M, T73P, A80M, V81M
B23: L69C+V70M (CM438) (designed binder)
Ubv: B1 Ubv with V13M, T73P, A80C, V81M
B24: L69A+V70M (CM432) (designed binder)
Ubv: B1 Ubv with V13M, T73P, V81M
B25: L69G+V70F (CM436) (designed binder)
Ubv: B1 Ubv with V13M, T73P, A80G, V81F
B26: L69C+V70F (CM459) (designed binder)
Ubv: B1 Ubv with V13M, T73P, A80C, V81F
B27: L69G+V70M (CM435) (designed binder)
Ubv: B1 Ubv with V13M, T73P, A80G, V81M
B28: L69C+V70C (CM462) (designed binder)
Ubv: B1 Ubv with V13M, T73P, A80C, V81C
B29: L69F+V70F (CM461) (designed binder)
Ubv: B1 Ubv with V13M, T73P, A80F, V81F
B30: L69A+V70C (CM434) (designed binder)
Ubv: B1 Ubv with V13M, T73P, V81C
B31: L69F+V70M (CM440) (designed binder)
Ubv: B1 Ubv with V13M, T73P, A80F, V81M
B32: L69F+V70C (CM464) (designed binder)
Ubv: B1 Ubv with V13M, T73P, A80F, V81C
B33: L69A+V70F (CM433) (designed binder)
Ubv: B1 Ubv with V13M, T73P, V81F
B34: L69M+V70F (CM460) (designed binder)
Ubv: B1 Ubv with V13M, T73P, A80M, V81F
B35: S57G (SM22) (designed binder)
Ubv: MHHHHHHGGSGMLIFVKTLTGKTITLEVEPSDTIENVKAKIQDKEGIPPDQQRLAFAGKSLEDGRTLGDYNILKDSKLHPLLRLR
B36: CM120 (designed binder)
Ubv: MHHHHHHGGSGMLIFVRMLTGKMIELEVMPSDTIEVVKAKIFDHEGIPLDQQHLAFQGTSLEDGYTLGDYNILKDPKKMPLLRLR
B37: CM121 (designed binder)
Ubv: B36 Ubv with F42Q, L49P
B38: CM110 (designed binder)
Ubv: B36 Ubv with M12H, M29E, V36N, F42Q, L49P, H53R, T59K, Y65R, G68S, R85Q
B39: CM108 (designed binder)
Ubv: B36 Ubv with M29Y, V36N, F42Q, H53R, T59K, S60L, Y65R

In the first assay the target is MBP tagged 53BP1 fragment (a.a. 1484-1603). The assay can be described thus: BLI, fold change Ka of Ubv/Ka of CM489. For orientation: BLI is a label-free optical method that tracks binding on a fibre tip over time.
As for B1, the binding result is “binds”.

For the molecule B2, the binding result is given as “binds”. Same read-out and setting: for B3 the value was “binds”.

For the molecule B4, the binding result is “binds”. On the same count and under the same terms, for B5 the value was “binds”; for B6, “binds”; for B7, “binds”. The same measure, in the same setting: under B8 stands “binds”; under B9, “binds”. Still for that read-out and setting: under B10 stands “binds”; under B11, “binds”. In the case of B12, the binding result is “binds”.

B13: the binding result was “binds”.

Regarding B14, the binding result is “binds”.

B15: the binding result is on record as “binds”.

In the case of B16, the binding result is “binds”.

Regarding B17, the binding result is “binds”.

For another assay the target is unchanged. The assay can be described thus: BLI, KA (M-1), log axis; CM476 with the indicated mutation.
On to B18, for which the binding result is reported as “binds”. As for B19, the binding result is “binds”.

For B20, the binding result is listed as “binds”. B21: the binding result is “binds”.

For B22, the binding result is “binds”.

Regarding B23, the binding result is “binds”. For B24, the binding result is given as “binds”. As to B25, the binding result is given as “binds”. Regarding B26, the binding result is given as “binds”. The same measure, in the same setting: for B27 the value was “binds”; for B28, “binds”. In the case of B29, the binding result was “binds”. The same measure, in the same setting: under B30 stands “binds”; under B31, “binds”; under B32, “binds”. Regarding B33, the binding result is on record as “binds”. With B34, the binding result was “binds”.

A further assay has the same target. Nature of the assay: BLI, fold change Ka of Ubv/Ka of i53.
In the case of B35, the binding result is on record as “binds”.

The next assay has the same target. Nature of the assay: BLI, fold change Ka of Ubv/Ka of CM1.
As to B36, the binding result is “binds”. For the molecule B37, the binding result is listed as “binds”. Turning to B38, the binding result is recorded as “binds”. Regarding B39, the binding result was “binds”.
